Experimental findings from ChEMBL document CHEMBL4888484, “Replenishing the malaria drug discovery pipeline: Screening and hit evaluation of the MMV Hit Generation Library 1 (HGL1) against asexual blood stage Plasmodium falciparum ,using a nano luciferase reporter read-out” (2022) are described below.

Each structure is given as a SMILES string. Screen size: about 150,000 compounds; about 540 (0.36%) showed an effect of 50% or more. The list shows a part of the results.

For this experiment, the system named is Plasmodium falciparum. As to the kind of experiment: Primary screen in NF54 nanoGlo assay, in single point, at 2uM, 72h; a lower Z score goes with more inhibition. Format: functional, Erythrocyte. The settings on record: timepoint 72 hour.
As a reminder, the % Inhibition is the change of the read-out against control, counted positive when it falls. As for `CS(=O)(=O)C1CCN(C(=O)c2nc3ccccc3s2)CC1`, the “% Inhibition” value is reported as -9% and the Z score is reported as 1.55.
With `Nc1nc2c(s1)[C@@H](c1ccccc1OCc1ccccc1)CC(O)=N2`, the “% Inhibition” value was 27% and the Z score is recorded as -3.03.
As to `COCC(=O)N1CCOCC(F)(F)C1`, the “% Inhibition” value is recorded as 5% and the Z score is recorded as -0.47.
`CCc1ccc(CNC(=O)c2ccncc2)s1`: the “% Inhibition” value was -4% and the Z score stood at 0.35.
With `CC(C)N1CCNC(=O)[C@@H]1Cc1nc(-c2cccnc2)no1`, the “% Inhibition” value is -14% and the Z score was 1.98.
For `Cc1nn(C)c2nc(OCC(=O)NC(C)(C)C)cc(C(F)(F)F)c12`, the “% Inhibition” value is listed as -8% and the Z score stood at 0.92.
For `Cc1cc(CN(C)Cc2sncc2Br)no1`, in that order: -6% and 1.16.
On the same counts, the results for `COCC(C)(C)CC(=O)NC[C@H]1CC[C@H](c2ccccc2)O1` are -14% and 2.06.
Consider `Cc1cc(N2CC(C)OC(C)C2)nc(C(C)N2CC(C)OC(C)C2)n1` (stereo unspecified), for which the “% Inhibition” value is -11% and the Z score is on record as 1.53.
For `CCOc1ncccc1C(=O)N(CC)CC(=O)NCc1cccs1`, in that order: -13% and 1.08.
Take `C[C@@]1(C(=O)NC2CCCCCCC2)CCC(=O)N1Cc1cccnc1`: the “% Inhibition” value is recorded as -6% and the Z score was determined as 0.95.
Regarding `CCC(=O)N1CCC(OC2CCN(C(=O)CC)CC2)CC1`, the “% Inhibition” value is on record as -11% and the Z score was found to be 1.3.
With `O=C(CCc1nc2ccccc2c(=O)[nH]1)Nc1nc[nH]n1`, the “% Inhibition” value is -6% and the Z score is listed as 0.82.
On the same counts, the results for `CN(Cc1ccccc1)[C@H]1CCCN(C(=O)c2nc3ncccn3n2)C1` are -5% and 0.84.
Regarding `COc1ccc(CCC(=O)N[C@H]2CC[C@@H](n3cc(C(=O)NC(C)C)nn3)CC2)cc1`, the “% Inhibition” value came out at 22% and the Z score was -2.78.
On the same counts, the results for `CO[C@H]1[C@H](NC(=O)c2sccc2Cl)c2ccccc2C12CCNCC2` are 5% and -0.82.
Turning to `O=C1C[C@H](c2noc(-c3cc(F)cc(F)c3)n2)CN1c1ccc(F)cc1`, the “% Inhibition” value is given as -11% and the Z score was determined as 1.03.
For `CCCc1nnc(NC[C@@H](c2ccncc2)N2CCOCC2)o1`, in that order: -10% and 1.36.
Take `O=C(Nc1ccsc1C(=O)NCc1cc(F)cc(F)c1)c1cnccn1`: the “% Inhibition” value was found to be 39% and the Z score was -1.29.
On the same counts, the results for `Cc1nsc(NC(=O)N2CCCN(c3ccncc3)CC2)n1` are -8% and 1.15.
Regarding `Cn1c(=O)c2c(ncn2CC(=O)N2CCN(c3ccccc3F)CC2)n(C)c1=O`, the “% Inhibition” value is -11% and the Z score amounted to 1.44.
In the case of `COc1ccc2c(c1)CCC[C@@]2(O)CNC(=O)CC1CC1`, the “% Inhibition” value was 4% and the Z score is -0.55.
In the case of `C[C@]1(Cc2cccc3ccccc23)CCCN1`, the “% Inhibition” value was determined as 8% and the Z score is on record as -1.14.
For `CC(C)[C@H](NC(=O)OC(C)(C)C)c1nnc(S(=O)(=O)Cc2cccc(Cl)c2)o1`, the “% Inhibition” value is on record as -7% and the Z score turned out to be 1.11.
As for `CC(C)Cc1csc(C(=O)Nc2ccccc2)c1C(=O)Nc1ccc(Cl)cc1`, the “% Inhibition” value amounted to 0% and the Z score is listed as -0.05.
For `CC(=O)NCCCC(=O)N1CCC(O)(c2ccc3nc(C)ccc3c2)CC1`, the “% Inhibition” value was 10% and the Z score was -1.26.
`Cn1cc2c(n1)CCC[C@H]2C(=O)N1CC(N2CCNC2=O)C1`: the “% Inhibition” value is -5% and the Z score stood at 0.8.
For `CC(=O)N1CCN(C(=O)c2cc(C)n(C)n2)CC[C@H]1c1nc(C)no1`, the “% Inhibition” value is -4% and the Z score is listed as 0.59.
On to `CC(C)n1cnc(NC(=O)CN2CCCC3(CC3)S2(=O)=O)n1`, for which the “% Inhibition” value came out at 6% and the Z score is on record as -1.04.
As for `COC1(c2nccn2C)CN(C(=O)OCC(F)(F)F)C1`, the “% Inhibition” value is given as -8% and the Z score is 0.96.
For the molecule `O=C(NCC(N1CCOCC1)C(F)(F)F)C1CC12CCOC2` (stereo unspecified), the “% Inhibition” value was 41% and the Z score is listed as -1.51.
On the same counts, the results for `CC(=O)c1ccc(OCC(=O)NCC(F)(F)F)cc1F` are -8% and 1.05.
As to `O=C(c1cccs1)N1CCN(c2nnc3ccc(C(F)(F)F)cn23)CC1`, the “% Inhibition” value was -22% and the Z score came out at 2.46.
For `CC(C)CC1CC(NC(=O)Nc2ccccc2Cc2ccccc2)CCO1` (stereo unspecified), the “% Inhibition” value is listed as 2% and the Z score was -0.32.
For the molecule `Cc1ccc2oc(-c3noc(C(=O)NCc4ccc(C)o4)n3)c(C)c2c1`, the “% Inhibition” value is on record as -14% and the Z score is listed as 1.85.
As to `Cc1c(NC(=O)CN2CC(Oc3ccccc3F)C2)cnn1C`, the “% Inhibition” value is reported as -11% and the Z score is 2.18.
`CCCC[C@@H](COC)NC(=O)C(=O)Nc1cnn(CC(=O)N(C)C)c1`: the “% Inhibition” value is given as -11% and the Z score is listed as 1.55.
With `CN(CC(=O)Nc1cc(F)cc(F)c1)Cc1ncc(C(C)(C)C)o1`, the “% Inhibition” value is 11% and the Z score is on record as -1.37.
Take `COC1C(C)C(NC(=O)NCCS(=O)(=O)NC(C)C)C1(C)C` (stereo unspecified): the “% Inhibition” value is given as -2% and the Z score was determined as 0.29.
Regarding `CCCCC(=O)Nc1cccc(C#Cc2ccccn2)c1`, the “% Inhibition” value was -11% and the Z score was 1.51.
As to `Cc1cc(=O)[nH]c(C)c1C(=O)N1CCC2(CCC(=O)N(C3CC3)C2)CC1`, the “% Inhibition” value was -16% and the Z score is listed as 1.52.
`COc1ccc(N(CCC(C)C)C(=O)[C@@H]2CNC(=O)c3ccccc32)cc1`: the “% Inhibition” value is 1% and the Z score was -0.13.
Take `O=C(O)[C@H]1CCCN1Cc1cnn(-c2ccccc2)c1`: the “% Inhibition” value is -12% and the Z score was 1.92.
